Measurements from patent publication US20050054043A1 (UNIVERSITY OF VERMONT, published 2005).

How the values were obtained:
[1] = target: T1, transferrin receptor on HeLa S3 cells (human); assay: competition of unlabeled transferrin against radioiodinated Boehringer Mannheim hTf on HeLa S3 cells, LIGAND fit (apparent Kd')
T1 construct: whole, on cells; also called human receptors; cell-surface transferrin receptors

[2] = target: T1, transferrin receptor on HeLa S3 cells; assay: direct equilibrium binding of radioiodinated diferric transferrin to HeLa S3 cells, LIGAND fit (apparent Kd')

Binder | Kd [1] [nM] | Kd [2] [nM]
recombinant full-length human serum transferrin (recombinant glycosylated), diferric (ligand, glycosylated (N-linked oligosaccharide sites Asn-413 and Asn-611); diferric (iron-saturated); radioiodinated in Table 2 (A), unlabeled in (B), also called full length recombinant hTF; recombinant Tf) not shown | 22.6 | 31.3
Boehringer Mannheim diferric transferrin (human) (ligand, diferric; radioiodinated as the direct-binding sample in (A) and as the tracer in (B); unlabeled as the competitor, Commercial human transferrin; also called Boehringer Mannheim Fe2hTf; Boehringer Mannheim hTf) not shown | 29.7 | 17.8
Sigma diferric human transferrin (ligand, diferric; radioiodinated in Table 2 (A), unlabeled in (B), Commercial human transferrin) not shown | 19.6 | 19.9
Scipac diferric human transferrin (ligand, diferric; radioiodinated in Table 2 (A), unlabeled in (B), Commercial human transferrin) not shown | 30 | 22.5
